According to PMC10726135:
The list shows a part of the results. At the low end of the ranking, values are background and their order means little. Measured with an extract: partners may take part in the binding.

biological target: T1, HNF4alpha8 (COS-7 nuclear extract) (UniProt P41235-5); test: protein-binding microarray; settings: COS-7 nuclear extract on double-stranded Agilent 4x180k PBM; binding buffer, salt, pH and temperature not given; high values mean tight binding; double strand, one strand shown; sequences stand for … in …GCCTAGGGAGATTAGAGTATCGGTCGA
T1 sequence: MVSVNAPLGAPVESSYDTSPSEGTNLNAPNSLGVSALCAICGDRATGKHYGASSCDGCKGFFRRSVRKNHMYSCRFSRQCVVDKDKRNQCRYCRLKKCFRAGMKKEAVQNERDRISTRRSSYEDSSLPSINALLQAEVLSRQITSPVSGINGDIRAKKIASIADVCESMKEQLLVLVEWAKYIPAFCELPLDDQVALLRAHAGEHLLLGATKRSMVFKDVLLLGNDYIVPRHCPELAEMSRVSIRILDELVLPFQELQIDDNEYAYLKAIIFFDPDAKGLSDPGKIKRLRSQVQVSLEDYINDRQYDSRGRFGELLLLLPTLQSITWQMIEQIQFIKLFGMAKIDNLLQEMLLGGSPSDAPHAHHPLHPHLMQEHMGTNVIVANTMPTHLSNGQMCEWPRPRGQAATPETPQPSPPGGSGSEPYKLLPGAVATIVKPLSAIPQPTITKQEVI

| Sequence | binding signal (log2 normalized intensity) |
| --- | --- |
| ATTCCTATCGCCCTTCTGTCAAGTCCAAAG | 1.08 |
| TGGGAACCGACCTTTGGTTCCTGAACTCAA | 5.39 |
| TTGCTCAACCCAAAGCATGTCCAGAATCCT | 0.712 |
| GGCCCTGCAGACTTTGCCTCAGTAAATGCA | -0.324 |
| CACACACACACAGCATTCCATTCATTTTAG | -0.802 |
| TTCCCTCATGATTTAGTAAGTTCAAGAAGA | 0.776 |
| CAGGATGGTAGTTGCTGAAGGGCAGGGTTG | 0.636 |
| GTGGGAGAGGGGGACTGCAAGTACGATTGG | -0.682 |
| GTAATCATTTGGGACAAAGTTCATCTGGGC | 4 |
| TGCGTGTTATCTATGGAACATGGACTTTGA | 9.28 |
| GGCAGCAGGGAAGAGCCGGCCGGCGGGGTC | 2.73 |
| TTATCAAGCGTGCACCCCAGGTACGGAGGA | -0.9 |
| ACAGTGGGGAGGGCAGGGTCAGAACCTGCC | -1.16 |
| ATAAGGGGCAGCAAACCTACCTGAACTTTG | 3.58 |
| TGCATTCCCCCACCTACTGTCTCCTAATCA | 2.09 |
| CCAGAAAAGGCCTAAAAGGTTATCTTCCAG | -1.07 |
| AAACAAGTAGCAGTTCAAAAGTTCAAAGAT | 2.19 |
| ATTATTAACTGTAGGCGTATGCTGTACAGA | 0.758 |
| ATAGGGAAAGATAAAAAAGTTCCAGAGACC | -1.42 |
| GATGGGCCAGGCAGGACAGTTTTGTGTGTT | 1.14 |
| GAAGATGCCAGCCCCGAGATAACCCCTCTC | 4.58 |
| CAGGAGGATTCCTGATGCGTTCAAGGAACA | -1.33 |
| AGGGCATGGGCAGCTTTGAAGACTCTCTTT | -1.38 |
| ATCTTCCTGAGGAGAGCAAAGATCACCTGG | 1.97 |
| GAGGGGGACACAGTTCAGGCCATCACACTC | -1.25 |

| Sequence | binding signal (log2 normalized intensity) |
| --- | --- |
| GATAGGCACAATCAGCAAACACAGATAGCA | -1.45 |
| AATGGTGTAGAGGCCAGAGGTCGTGTCTCC | 1.96 |
| TTATCCTTGGGACATTCTCACATTAAAAGA | 0.182 |
| GCAGAGATTCCTGCTGAGTTATCTCTTGAC | -1.19 |
| GGAACATCAGACACAGAGATAAGGAGGTAA | -1.36 |
| TTCCCACCCCATTTCACAGCAACCTCAGAC | 1.92 |
| CGTTCCTGACAGACTGCCATTCCAGAAGTA | -1.32 |
| GCCATCTGCTGCCTCAGTTTCCCCGTCTCT | 1.66 |
| GGAAGGGAGGTGAGTGCTAGCATTGCTCAG | -1.33 |
| TGGCCTCTGCAGACATGGACTCTGGGATCT | 3.74 |
| TTGTACTGCTTCCAAAACATTGTAGAATTA | 0.558 |
| GTGTCATTGTTATTTACGGTGGGCACCTCA | 0.235 |
| CCGACTCCTGGGTGTGAGATAAGGCCGCTG | -1.23 |
| GGTTCTCTCTTCTTCCCCTCCTTCAGGTCA | 2.67 |
| AATGACCCTTGCTTGACCCATTATGGCCAC | 2.1 |
| TCCGGGTATGTTCTTAAGATAAGGACTGTT | 1.04 |
| TCCCAGGATAATGGAGAAGATAAGCAGATC | -1.26 |
| CAAGGTCCCATGCACTGGCCTGGATTTAAA | -1.17 |
| CCGGTTTGTTCCATGCCACAGAATCGCCCC | 3.12 |
| GGAACCAAGAGCAGATTTGTTTGCTCTTTA | 0.915 |
| AGCTGACCCCAAAACCCCCAAAGGTGAGTA | 4.29 |
| GACCAGCTTTTGGAAGGACTTCGAATGGTA | 0.961 |
| CTTCACTGACGAAACTCACATACTGTGGAC | 1.18 |
| GATGATTGTCCCTTTTCTATCCAGATGATC | 1.62 |
| ACCTCTTATCAAGCGTGCACCCCAGGTACG | 1.3 |

| Sequence | binding signal (log2 normalized intensity) |
| --- | --- |
| TAGGAATCTTCAAGGCCTACCTTGGGTTCT | 0.464 |
| CTTGGACTCTGAAGGAATGTAAACTCCAAG | 0.585 |
| ACCTCCCTGGGCATGTCTGCTCCCTGAGTT | 1.06 |
| CCCTCTGATATTGGGTGAGTGTTAGAGCAC | 0.849 |
| GTCCTATGACCCTGCCAAATCCCCCTCTGC | 4.79 |
| ATAGCATGCCACGATGATTAGCTGACTTTA | -1.31 |
| TAGGATCTAGCAAATTTGGGAGGGAAGAGG | -1.25 |
| GGACTTTGTTGTTTGCCTCTGAAAACTTTT | 2.49 |
| GTTGAAGTTCCAGAAGACTACAAATTCCTC | -1.39 |
| AGTGAACTGTCTGCTATGTGTATATGAGTG | 1.34 |
| GGTTCCTCAGAGGACCTGACATTCTCCACT | -1.28 |
| AGTCTGATTCTAGGGCCCATGCCCTTAGCC | 1.31 |
| CCTAGATGAGATAAGGTTCTGATAAAGTAT | 0.675 |
| ACAACATGAGTAAACGAGCTATTTAGATAA | -1.29 |
| AAATACATAGCTGGGATGAGATACCCATTC | -1.26 |
| CATGTGCATTTCACAATAGGGTTCAAACTC | 2.85 |
| TGAGGGGACAAAGTTCGTGGAAAGTGGAAG | 3.11 |
| AAACAGAGGCTGAAATGGTTACAAAGGTCA | 5.42 |
| TTTACAGAACTCTTCGAAGACACAAAGCTT | -1.28 |
| GCTTGGGGTGGGGTTGGAGTCCAGAGTTCA | 4.45 |
| AGTTTAAAGGCGTTTGCTCCCATCCCCCCA | 4.91 |
| TGTGGACTGCTCCAGTGGACATTGGCCCTT | 7 |
| TTTGAAAAGCTGTAGTGAACAAGTCTCCTT | -0.611 |
| CACCCAAACCATCCCAGGCATCCAGGCCAG | -0.966 |
| AGATTGCTAGCTGAGAGACTTTATCCGTAT | -1.19 |

| Sequence | binding signal (log2 normalized intensity) |
| --- | --- |
| ATTAGAGAACATGTACTTTGTACTGCTTAT | 4.99 |
| ACTGCACTGTATCTTATCAGAAACACACCC | -0.00301 |
| GGCCTCTCCACTTGGGTATCAGATAGTCCA | 1.51 |
| AAAGCGGCTCAGGAAACAGCGCTATCGGGG | -1.38 |
| GACTATTTTATTTTCCCCCTTTGAAGTCTG | 3.2 |
| GGGTGTAAGAGTGAACTCTGACCATGCCTA | 3.69 |
| ATAGGTTCTACTCTCCCCAGTTCAAAGGTT | 6.08 |
| AGATCCGAAGTCTAGGACGTTATCAGCAGG | -1.01 |
| CAGAAGCAATCACAAGGAATGCCCTTATCT | 2.11 |
| CTTTGACACAGGCGACCTTCGCTCGGCTCG | 4.27 |
| AAAAGAGTTGCTCAAACCAACATTATTAGC | -1.34 |
| CTGATTTAGCTATTTGACCTTCGGCCTCAA | 8.73 |
| TGGAACCTGTCTGACAGGATGAATTTATTG | -1.24 |
| GAGTCTGTTGCAAGCAATGGAGAGGATTTT | -0.685 |
| AGGATGTGTGCTCGAGGTGGACTTTCCCCC | 6.75 |
| TAGCTTTAAAGACCAAAGATCACAGTGAAG | 1.91 |
| AATGCTGGAGTTAAAGCTTTGAGGAACTAG | -1.31 |
| TACTTATGGTTTGACCCTGCGATAAGTAGA | 2.67 |
| AGTTCCAGAAGACTACAAATTCCTCAATCC | -1.35 |
| GTTAACCTCCTATGATCTTTCATTCCTATT | -0.0945 |
| GAGGGTAGAGGAGCCAGAGGGGCCAGGAAC | -1.36 |
| ATGACCTCTGCACCCTTCCCTGAGTTTCCA | 3.34 |
| CACACCTGGCTATTCAGTTTTTATTTTGTA | 0.51 |
| CTTAGGCTTTTGCACTTTACTCAGAAAGGT | 2.89 |
| AGTCATCCATCATTCATACATTTGCCTGAA | 0.432 |

| Sequence | binding signal (log2 normalized intensity) |
| --- | --- |
| GTGCTTAGTATGTGCTAGGCATTTTATAGT | 1.76 |
| CAAAGGACAGCAGTAGAAAACAGAGAAGCC | -1.4 |
| TAGCCCTGCAGTGTATGACACAGCCACAAA | -1.4 |
| TGGCTTTTGCCCTCAAGGAGTTTTAGATTA | 1.99 |
| TAGGCATGCAAACTTTGTTTAATGATTGCA | 0.0707 |
| TGCTCAGGGAGAAGCAAATATGTGTCCTCT | 1.79 |
| TCACCTCGCTCCCCTCCTGTCAGTTTATTT | 2.3 |
| TGCTCTTTATCAGCACCAAGAACAAACAAA | -1.44 |
| CTGTGAATTCTTAAGCCAAAGTCCAAGTTG | 4.73 |
| GCCGGAAAAAGTGAGGAGCAGCAGAGAGTC | -1.37 |
| TTGTACAAAGGTCCTGTGGGGCCCAGAGCC | -0.13 |
| CCCAACCCTCTCCCACTCCCCTCCTCCAGA | 4.68 |
| ACAGGCCTCCCCCCTTCTGTTTCCAGAAAT | 3.59 |
| TGCACCCCCTTCCCACCTGCTGTCCAACCT | 4.74 |
| GGGTGGTGAAATGGGGGAAGGGCTGGAGAC | -1.39 |
| TAAGTGAAAGTACACAGTGCCTGCTTGCAG | -1.4 |
| TAGAAAGTCAGTGAAGGAGCTGACTAGATT | -1.25 |
| TTACTTGCTGGAGAAAGAGGGGAAGGATGA | -1.41 |
| GAAGGTCGAGGCCAGGGATTAAAGAATTCG | -1.29 |
| CTCTTTTACTGTACTTCTTTAGGACTGCTC | 1.37 |
| TACACCCCTCACTCCCTCCAGCTGTCTTGG | 3.21 |
| TAGAAAGGAGTACACACCATAAGAGGCTCT | -1.36 |
| CTGATTTCAAAGTTCAGTTTGATTACTTGG | 2.51 |
| ATGCCAGTGGGAAAACAAACTTTCCTCTCT | -1.25 |
| TTGCACTGCTCAGGGTGGGGTCTCGCTGCT | -1.13 |

| Sequence | binding signal (log2 normalized intensity) |
| --- | --- |
| AGATAATGCCAGAAAGGTCTAAAAGTAGCT | -1.21 |
| GAGAAACGCACTCGCCTCTCCTGTTCCGGT | -1.03 |
| GTGGAAAGACAAGTTGAAGCCAGATTGTCA | -0.804 |
| TGGCTTCCGTGCCTGCATGGGCTGTCACCT | -1.1 |
| CGTCCGTGCACCCTTCCTCTGCAGCCGCCC | 0.0254 |
| CGATAATTACCTGGTCAGAAGAAACATGCG | -0.8 |
| AACTCAGTGAGGGCTATTGACAAAGACCAG | -1.37 |
| AAAGGAAGGAATTTACTGCAGTCAGGGGTT | -0.376 |
| TATTTTCTTATCTGCCTAGGCATTTGGCTG | -1.3 |
| GATAAGAATTTTGTGCAATTACACAACTTC | 1.04 |
| GGAGAGGGAGAGTGAGTGAGTGTGTGTGTG | 2.35 |
| GTTGACATTTGAACCCAACCGTCCAGAGTC | 3.08 |
| CCTCTAGATAAACCAAGCCTGCAGCACCTT | -1.28 |
| GCACACTGGCAAATGTGAATGGACTCTGCC | 4.29 |
| TGAATAGGTCTTGGAATGTGACGGCAGGTC | 1.25 |
| AAGATAAGATGTACCATTCATGGACAGCCT | -1.38 |
| TCCAGAATTGTGTGGTTATCTGTTGGGGAA | 2.14 |
| ACTCCTGTGCTGGAATGCTTTTCTAGAACC | 0.385 |
| TGCATCGCAGTCGCCTGCAAGACAATACCT | -1.35 |
| CTGGTGTGCTTTCTGTCCTCTCAAAGTCCA | 4.48 |
